The values below come from PubChem BioAssay AID463173 (ICCB-Longwood Screening Facility, Harvard Medical School, 2010).

Hit rate of the full screen: of about 52,000 compounds, about 1,700 (3.3%) were called active. Cut-off read from the data, not from the text of the source: active = survival mostly below about 52% (no sharp cut-off); inactive = mostly above about 56%. The list shows a part of the results.

This assay deals with Wild type. As to the kind of experiment: growth inhibition of S. aureus wild type versus tarO mutant, primary screen, teichoic acid synthesis inhibitors, RN4220, OD600 (AID 463173). The conditions noted are these: S. aureus RN4220 wild type/DeltatarO growth, OD600, 18 h, stronger effect = lower value, screened at 18.75 µg/mL (by protocol).
As for `COc1cc2c(=O)c(S(=O)(=O)c3ccc(C(C)C)cc3)cn(Cc3ccccc3C)c2cc1OC`, the survival was inactive: 94%.
For `Cc1ccc(C(=O)NCC(c2ccco2)S(=O)(=O)c2ccccc2)cc1C` (centres undefined), the survival was inactive: 72%.
For `CCOC(=O)c1c(C)c(-c2ccccc2)n(CC(=O)NCc2ccccc2)c1C`, the survival was inactive: 87%.
Regarding `Cc1cc(C)c(Cn2c(=O)n(Cc3ccccc3)c(=O)c3c(C)c(C)sc32)c(C)c1`, the survival is inactive: 82%.
As to `O=C(Nc1cccc(C(F)(F)F)c1)c1cc2nc(-c3ccco3)cc(C(F)(F)Cl)n2n1`, the survival is inactive: 71%.
For the compound `O=C(CSc1nccn1Cc1ccccc1)Nc1nc2ccccc2s1`, the survival was inactive: 121%.
As for `COc1ccc(OC)c(NC(=O)COCc2cc(-c3ccco3)on2)c1`, the survival is inactive: 22%.
`N#CC(C#N)=Cc1cn(-c2ccccc2)nc1-c1ccccc1`: the survival was inactive: 113%.
On to `C1CCC(Nc2nc(N3CCOCC3)nc(N3CCOCC3)n2)CC1`, for which the survival was inactive: 105%.
With `CCOC(=O)c1cc(-c2ccccc2)n(CCC(=O)NCCc2ccc(C)cc2)c1C`, the survival is inactive: 73%.
For `COc1ccc(OCC(=O)N2CCN(S(C)(=O)=O)CC2)cc1`, the survival is inactive: 106%.
Next, `COc1ccc(-n2nc(C(=O)N3CCCCC3)c3c4ccccc4n(C)c3c2=O)cc1Cl`: inactive: 124%; `Cc1ccc(S(=O)(=O)c2nnn(CC(=O)Nc3ccccc3C)c2N)cc1`: inactive: 94%.
Turning to `Cc1ccc(Nc2nc3c(S(=O)(=O)c4ccccc4)nnn3c3ccsc23)c(C)c1`, the survival is inactive: 97%.
Consider `Cc1cccc2sc(N(CCCN(C)C)C(=O)c3ccc(Cl)s3)nc12`, for which the survival was inactive: 80%.
In the case of `Cc1ccc(S(=O)(=O)c2cn(CC(=O)Nc3ccc4c(c3)OCO4)c3ccccc3c2=O)cc1` it was inactive: 84%; in that of `Cc1sc2ncn(CC(=O)N3CCN(c4ccc(F)cc4)CC3)c(=O)c2c1S(=O)(=O)N1CCCCC1`, inactive: 88%; in that of `COc1ccc(NC(=O)C(C)N2CCN(C)CC2)cc1` (centres undefined), inactive: 104%.
In the case of `COc1ccc2[nH]c(=O)c(CN(CCCN3CCOCC3)C(=O)Nc3ccccc3)cc2c1`, the survival is inactive: 102%.
On to `COc1cccc(NC(=O)CSc2nc(=O)n(Cc3ccco3)c3c2CCC3)c1`, for which the survival was inactive: 72%.
Consider `COc1cc(C2C(C(=O)OCC(C)C)=C(C)N=C3SCCC(=O)N32)ccc1OCc1ccccc1` (centres undefined), for which the survival was inactive: 72%.
Next, `Cc1cccc(NC(=O)Cn2nnc(C(=O)Nc3ccc(F)c(Cl)c3)c2N)c1`: inactive: 95%; `CC1=C(C(=O)Nc2ccc(C)cc2C)C(C(C)C)n2nc(SCc3ccccc3Cl)nc2N1` (centres undefined): inactive: 71%; `CCOC(=O)n1c(SCC)nc2ccccc21`: inactive: 104%.
For `CCN(CC)CCCNC(=O)CSc1c2c(nc3cc(Cl)ccc13)CCCC2`, the survival is inactive: 84%.
Consider `Cc1cc(C)c2nc(N(Cc3cccnc3)C(=O)c3ccc(S(=O)(=O)N(C)C)cc3)sc2c1`, for which the survival was inactive: 57%.
Regarding `CCN1CCN(c2cc3c(cc2F)c(=O)c(S(=O)(=O)c2ccc(OC)cc2)cn3CC)CC1`, the survival was inactive: 72%.
With `Cn1c(C(=O)NCc2ccccc2F)cc2oc3ccccc3c21`, the survival is inactive: 69%.
For the compound `Oc1ccccc1C1OC2CCCCC2C2=CCCCC21` (centres undefined), the survival was inactive: 130%.
For `C[n+]1ccc(/C=C/c2ccc(N3CCCC3)o2)cc1`, the survival is inactive: 88%.
Next, `O=C(c1ccco1)n1nc(-c2ccccc2)nc1NCc1ccc(F)cc1`: inactive: 73%.
Next, `COc1cccc2sc(N(Cc3cccnc3)C(=O)Cc3ccccc3)nc12`: inactive: 89%.
`Cc1c(C(=O)Nc2cccc(C(F)(F)F)c2)sc2nc3n(c(=O)c12)CCCC3`: the survival was inactive: 80%.
Regarding `COc1ccc2oc(-c3cccc(NC(=O)c4ccc(C#N)cc4F)c3)nc2c1`, the survival is inactive: 81%.
In the case of `CCCCNC(=O)c1ccc2c(c1)NC(=O)C(CS(=O)(=O)Cc1cccc(C)c1)N2` (centres undefined), the survival is inactive: 128%.
On to `CCN1CCN(c2oc(-c3ccc(COc4ccc(C)cc4)o3)nc2C#N)CC1`, for which the survival is inactive: 51%.
`CCCCNc1ncnc2c1nnn2C`: the survival was inactive: 73%.
As for `Cc1ccc(S(=O)(=O)N2CCN(Cc3noc(CCC(=O)N4CCCCC4)n3)CC2)c(C)c1`, the survival is inactive: 72%.
On to `COc1ccc(C2CC(=O)N(Cc3ccc(F)cc3)c3ccccc3S2)cc1` (centres undefined), for which the survival is inactive: 30%.
As to `CN1CCN(CC(=O)N2CCCC2=O)CC1`, the survival was inactive: 93%.
As to `CC(C)Cn1c(=O)c2sccc2n2c(CCCC(=O)NCCc3ccccc3)nnc12`, the survival was inactive: 98%.
In the case of `COc1cccc(C(=O)NCC(=O)OCc2cc(=O)n3c(C)csc3n2)c1`, the survival was inactive: 80%.
In the case of `O=C(NC1CCCCC1)N1CC=C(c2ccccc2)CC1`, the survival is inactive: 115%.
As to `COc1cc(C(=O)Nc2ccc3[nH]c(=O)sc3c2)cc(OC)c1OC`, the survival was inactive: 96%.
As for `CC(C)C(=O)N1c2ncnn2C2(CCCCC2)[C@@H]2CCCC[C@@H]21`, the survival is inactive: 98%.
Regarding `CC1=C(C(=O)Nc2cccnc2)C(c2cccc(F)c2)n2nc(SCc3ccccc3)nc2N1` (centres undefined), the survival was inactive: 71%.
Next, `COc1cccc(NC(=O)Cn2c(=O)n(-c3ccc(Cl)cc3)c(=O)c3oc4ccccc4c32)c1`: inactive: 91%; `CCOc1ccc(NC(=O)CC2C(=O)N(c3ccccc3)C(=O)N2C2CCCCC2)cc1` (centres undefined): inactive: 69%; `C1CN(C(N2CCOCC2)N2CCOCC2)CCO1`: inactive: 104%.
For the compound `Cc1nc(Nc2ccc(Cl)cc2)cc(-c2ccccc2)n1`, the survival was active: -2%.
Next, `COc1ccc(CNC(=O)c2nc(SC(C)C)ncc2Cl)cc1`: inactive: 109%; `Cc1ccn2c(Nc3ccc4c(c3)OCO4)c(-c3ccc(N(C)C)cc3)nc2c1`: inactive: 90%.
As for `COc1cccc(C2CC(=O)NC(SC)=C2C#N)c1` (centres undefined), the survival is inactive: 107%.
As to `O=c1c2cn[nH]c2nc(SCc2cccc(Br)c2)n1-c1ccc(Cl)cc1`, the survival is inactive: 127%.
With `COc1ccccc1CNC(=O)NCc1noc2ccc(C)cc12`, the survival is inactive: 77%.
In the case of `O=C(COC(=O)c1ccco1)NCC1CCCO1` (centres undefined), the survival is inactive: 101%.
For the compound `CCOC(=O)c1c(-c2ccccc2)csc1NC(=O)c1cc(-c2ccc(Br)cc2)on1`, the survival was inactive: 77%.
In the case of `Cc1nc2ccc(S(=O)(=O)CCC(=O)Nc3ccc(C)c(C)c3)cc2s1`, the survival was inactive: 113%.
In the case of `CCN1C(=O)C2C(c3ccc(O)cc3)NC(CO)(C(=O)OC)C2C1=O` (centres undefined) it was inactive: 108%.
